Measurements: the supplement of paper PMC10126150
Sequences with one replicate were seen in a single cluster, so their values are uncertain.

Tested on: ATP
Assay: switch fluorescence ratio, 500 uM ATP over buffer (Cy3 cluster intensity, sum of 5 cycles each) (fold (ratio)); higher = stronger signal-on switching upon ATP binding; sequences stand for … in TCGTCGGCAGCGTCAGATGTGTATAAGAGACAGTTTTTTTTTTTTTTTTTTTTTTTTT…TC
Conditions: aptamer strand: ATP DNA aptamer (quencher-CACCTGGGGGAGTATTGCGGAGGAAGG + anchor), 100 nM annealed; ATP concentration: 500 uM; one replicate
Summary of the method: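 Per cluster, summed Cy3 intensity from the target cycles was divided by that from the buffer cycles to give the fluorescence ratio, then averaged per switch-domain sequence. Clusters outside 100-1000 RFU were excluded. The Cy3-labelled switching-strand clusters, on a modified Illumina MiSeq flow-cell, were annealed to 100 nM quencher-labelled ATP aptamer and imaged in selection buffer, then after 15 min with 500 uM ATP at 22 °C, for five cycles with NaOH stripping and re-annealing between them.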
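Note: ATP exposure 15 min at 22 °C before imaging.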

| Sequence | switch fluorescence ratio |
| --- | --- |
| ACCGTGCTAC | 2.05 |
| CGATTAGGAG | 1.02 |
| GGCCTGATGA | 0.995 |
| AGGAGTTAT | 0.952 |
| TTGACCTG | 1.04 |
| AATATAAGTC | 1.09 |
| GAGTACAACG | 0.986 |
| ACCAACGTTG | 1.01 |
| ACTAGATCTT | 0.978 |
| TAGTGGTGC | 1.28 |
| TGTCTAGG | 0.97 |
| GAGTGGGAAC | 1.03 |
| TGTCGGGCGA | 0.992 |
| GCTATCACCC | 1.07 |
| CATTGTGAAA | 0.994 |
| GAGATTTACG | 1 |
| ACACAAGAGG | 1.02 |
| GCTTTGTTGT | 0.951 |
| ACGTCGGTCG | 1.02 |
| CTTGGCTACG | 1 |
| TCGATTATGT | 1.02 |
| TCAGGACGAG | 0.966 |
| ATATTGCGGT | 1 |

| Sequence | switch fluorescence ratio |
| --- | --- |
| GTTATGAT | 1.04 |
| ATGGCTACCC | 1.08 |
| GCTTACAAAT | 1.01 |
| TGACATAAAG | 1 |
| AGTACGCTC | 1.08 |
| GTTTATGTGC | 1.01 |
| GGCTATCATG | 0.98 |
| ATAGGGGACT | 1.01 |
| GCAACTTATA | 1.07 |
| CGAGAAGTG | 0.999 |
| CTCGTCTACG | 0.988 |
| AAGTCGCAAG | 0.988 |
| GGACTCCCG | 1.01 |
| GTTAGACAGC | 1.01 |
| CAATGATGGT | 1.01 |
| CAAAGCTACG | 1.03 |
| GTTCGGGGGC | 1.02 |
| CGTCAACCAT | 1.01 |
| TAGAAATGAG | 0.991 |
| AACCGCGTTC | 1.79 |
| TCAATTTAGC | 0.988 |
| GACATTATTA | 1.02 |
| GGTATCAGGT | 0.981 |

| Sequence | switch fluorescence ratio |
| --- | --- |
| TTCTCTTAAA | 1.01 |
| AATTGGGAAC | 0.979 |
| CAGCCGGGCG | 0.979 |
| AGGGAGTAAG | 1.03 |
| TTCTTATAGG | 1 |
| CAAATGGATC | 0.975 |
| CCTCGAGAGG | 1 |
| ACAGACACTT | 1.08 |
| GATCACCCGC | 1.09 |
| AGAGTGCTCT | 0.959 |
| AGTGAATATT | 0.97 |
| AAGTGAGACG | 1.12 |
| AGGCTTAAC | 1.02 |
| TAAACATTT | 0.992 |
| ATTTCCCCGG | 1.71 |
| TCTTGAGTTC | 0.991 |
| CACAATAACA | 1.05 |
| AGTATCCAGT | 0.922 |
| GCGGCACCTG | 0.964 |
| TGTTGATATA | 0.998 |
| AGTTGACTCT | 1.01 |
| TGTAATAATG | 0.952 |
| GTGAGAACGC | 0.968 |

| Sequence | switch fluorescence ratio |
| --- | --- |
| CGTACAGGAA | 1.05 |
| GGCGTTAACC | 1.01 |
| AGCACGCGAC | 1.49 |
| ATCATAAATG | 1.03 |
| CAGTTGTCTT | 0.967 |
| AAAGGCCTCA | 1 |
| AAGTCAGCCA | 0.973 |
| CTGCGTTCGG | 0.966 |
| CGTGCAACGT | 0.98 |
| CTAGTATAGG | 1.03 |
| GGCAAACTTG | 1.02 |
| ATCCTTCT | 1.15 |
| GAGAGTGGCC | 0.935 |
| AAAAAAGCCG | 1.12 |
| ACCATATTGG | 1.01 |
| TCATAGGAAT | 1.02 |
| GTACCCTGTG | 1.04 |
| TGACGCAAG | 1.14 |
| CCTAAAGTT | 1.1 |
| CCCCTTTTCA | 1.03 |
| TAGGGATGG | 1 |
| TTGTTTACGC | 0.957 |
| AGAGCCTGTG | 0.951 |

| Sequence | switch fluorescence ratio |
| --- | --- |
| AAATGGCCCC | 1.08 |
| AACCCGCCTG | 0.974 |
| GCCTATACTT | 1.01 |
| AACTAGTGTG | 0.969 |
| CTCTGTTTTT | 0.946 |
| ATTCGAGGGA | 0.984 |
| GCAGCGATTT | 1.21 |
| GTCGACTCGC | 0.995 |
| ATGTCACGGC | 1.03 |
| CTTCTTAGCT | 0.976 |
| TCTCAAGCCA | 1.2 |
| CGATGACTAC | 1.66 |
| AATCTGGCTA | 0.984 |
| GCAATTTGT | 1.03 |
| AATGGGCTT | 0.97 |
| ACAAGGGGCC | 1.06 |
| CTTTCCACG | 1.09 |
| ACTAGATGTA | 0.985 |
| TTTCGCG | 0.974 |
| CGGGTCTAAT | 0.947 |
| GTATAAGTTA | 0.973 |
| CGGCTGTGCG | 0.972 |
| TCGGTAATGT | 0.987 |

| Sequence | switch fluorescence ratio |
| --- | --- |
| GGGCATTAGT | 1.03 |
| TCCCTGGTTT | 1.09 |
| GGAATTAGGA | 1.02 |
| TCAATTTTTC | 1.01 |
| GTAGTTTATC | 0.991 |
| CTCGTATTTT | 1.03 |
| CAATCTATTG | 1 |
| AGTAGTTAGT | 0.999 |
| TTTCGCTGAG | 1.08 |
| GATACCCGGG | 1.03 |
| TAAGAGAGGA | 1.04 |
| AGGATAGTAG | 0.985 |
| CGTCTGGTG | 0.96 |
| AGGAGCGACC | 1.03 |
| CATGCGGATC | 1.08 |
| GATCTGGTTG | 1 |
| CCAATGCCT | 1.04 |
| TGGATAGCAA | 1.35 |
| TGTGTAGGCT | 1.03 |
| GTAGCTAAGG | 1.01 |
| TCCAAATTTA | 0.951 |
| GAGCCAAGAG | 1.09 |
| CTGCTTTCTG | 1.04 |

| Sequence | switch fluorescence ratio |
| --- | --- |
| AGTTTGACCC | 1.02 |
| AAGAATCCGG | 0.997 |
| CATGTGGTGT | 0.983 |
| CGTTTGCTTC | 0.999 |
| AGGTCAGCTA | 0.98 |
| TGTACCAG | 1.05 |
| AGAATTGAAT | 0.983 |
| ATGACAAGGG | 0.984 |
| ACGTGGTGAG | 1 |
| GCAGTGGGAC | 1.29 |
| CGGACTACAC | 1.3 |
| TTCCACTGAT | 1.02 |
| TGCGGCAGAA | 0.974 |
| CTATGCTTCT | 0.993 |
| ATCTGGCGAT | 1.06 |
| ATTGTGGCTG | 1.03 |
| ACCACGGAGG | 1.03 |
| AGCCATTTCT | 1.04 |
| GCCCCACTTA | 1.02 |
| GCTTATTCGC | 0.994 |
